# Data from the supplement of paper PMC3334620.
# In all, about 33,000 sequences were measured (“E-score (-0.5 to 0.5)”: median about -0.054, highest 2% from about 0.35 on). The list shows a part of the results.
# Target: T1, Stb5 (UniProt P38699)
# T1 sequence: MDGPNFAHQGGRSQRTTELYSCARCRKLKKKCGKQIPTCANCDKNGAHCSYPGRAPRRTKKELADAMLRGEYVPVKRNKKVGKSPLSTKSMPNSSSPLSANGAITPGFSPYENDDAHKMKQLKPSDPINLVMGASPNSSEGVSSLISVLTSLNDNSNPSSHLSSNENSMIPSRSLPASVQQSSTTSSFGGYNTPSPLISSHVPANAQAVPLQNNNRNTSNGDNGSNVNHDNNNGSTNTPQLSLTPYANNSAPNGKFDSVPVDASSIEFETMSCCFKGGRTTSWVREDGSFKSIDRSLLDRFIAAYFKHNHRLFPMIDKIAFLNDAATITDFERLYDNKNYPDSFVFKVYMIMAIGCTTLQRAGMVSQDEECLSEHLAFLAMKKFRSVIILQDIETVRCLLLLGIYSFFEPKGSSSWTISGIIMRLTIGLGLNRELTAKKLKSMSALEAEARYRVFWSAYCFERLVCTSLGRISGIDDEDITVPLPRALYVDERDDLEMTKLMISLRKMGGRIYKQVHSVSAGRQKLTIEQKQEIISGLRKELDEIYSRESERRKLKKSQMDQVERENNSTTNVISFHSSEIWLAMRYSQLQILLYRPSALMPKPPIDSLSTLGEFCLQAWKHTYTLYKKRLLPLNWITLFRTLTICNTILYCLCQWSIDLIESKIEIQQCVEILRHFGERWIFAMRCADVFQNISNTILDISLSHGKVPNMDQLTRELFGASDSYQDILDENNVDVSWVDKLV
# Experiment: PBM E-score (8-mer binding enrichment) (E-score (-0.5 to 0.5)); higher = stronger / more preferred TF binding; most listed sequences are background and not binding sites
# Conditions: protein concentration: 200 nM; construct: GST-full length
# Method in brief: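 For each ungapped eight-base word taken together with its reverse complement, the Universal PBM Analysis Suite assigned an E-score. Binding data came from GST-tagged yeast transcription factors, applied at about 100-200 nM, on universal all-10-mer Agilent arrays made double-stranded by primer extension. Fluorescent anti-GST marked bound protein, and scans were normalised with masliner.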
row,Sequence,PBM E-score
1,CACTATTA,0.0326
2,CATCAGAC,0.0922
3,CGTTAGGA,0.102
4,CGGTTTAA,0.155
5,CCATGAGG,-0.0613
6,GCAGAAAA,-0.00391
7,CGATATTA,0.00284
8,ACCCATGG,-0.204
9,GTTGTATA,0.0296
10,AAGTAGCT,-0.281
11,AAGAGGCA,-0.337
12,AATGATCC,-0.0728
13,AGAACAAG,-0.239
14,CCAAGCAA,-0.148
15,CTGTTTCC,0.0582
16,AGTTAGAG,0.0437
17,CACGTGCC,-0.129
18,GTTAGTGA,-0.0185
19,AGAATTGA,-0.0265
20,AAAGTCGG,0.332
21,ACGTGTGC,-0.352
22,AGCAGTGG,-0.117
23,AGGTCTGA,-0.227
24,TTATCCAA,0.0137
25,GACGGAAC,0.121

row,Sequence,PBM E-score
1,AACGCCGA,0.456
2,CTGCGACC,-0.0552
3,CTAGCTTA,-0.0794
4,GGACAATA,0.136
5,ATAGCGGA,0.345
6,AGCGGAAC,0.295
7,GACAGCGC,0.245
8,CCTTGCCG,0.0193
9,AGAAAAAT,-0.161
10,ACTCGAGG,-0.218
11,CCCAACAC,-0.0453
12,CACTATGA,-0.219
13,ACTATAAT,0.0519
14,AGGAAATC,-0.00224
15,CCACAAAA,-0.119
16,ACGTTGCG,0.0488
17,GCCATAGC,0.0758
18,CCTGTAAC,-0.126
19,AAATCATC,-0.268
20,AAAAATGT,0.037
21,AGACTCTG,-0.341
22,AATACGGC,0.104
23,AGTTGTGA,-0.238
24,ACGAATAC,-0.154
25,GGAAACAA,-0.11

row,Sequence,PBM E-score
1,CCAAACAA,0.00788
2,ACACCATG,-0.0934
3,CCTTGTAA,-0.0634
4,CCGCCCGC,0.362
5,ATTATTGC,0.121
6,GATCAGAC,-0.106
7,AAGCCTCG,-0.112
8,TAGATTAA,-0.135
9,CGAGCGTC,-0.0512
10,CCTTCGAA,-0.00989
11,CCCGGCTC,0.0435
12,AGACTCTA,-0.304
13,AACAATCC,0.0806
14,CAATCAAA,-0.298
15,CCCCTGTA,0.118
16,CGGCTGTC,0.00374
17,ACACTAAT,-0.249
18,CTATCGGC,0.235
19,AAGGCGAC,0.042
20,CGTTGTGC,0.138
21,ACGGCAGT,0.202
22,CACACTCG,-0.0743
23,CAGCTGAC,-0.152
24,CACGTCGC,-0.066
25,GCAGGAGC,-0.201

row,Sequence,PBM E-score
1,ATCCACAA,-0.168
2,GAGATATA,0.149
3,ATTCCTTC,-0.0881
4,AAGTTGCA,-0.0624
5,AAGCGGCA,0.344
6,GAAGCAAA,-0.293
7,AGTACGAT,-0.165
8,CGGGGCGA,0.317
9,AACCCAAG,-0.199
10,CAGTAGGC,-0.268
11,TGTACGAA,-0.0429
12,CCGCGCGA,0.168
13,GTTATATA,0.108
14,CTCGAGAC,-0.187
15,ATCAACTC,-0.195
16,CTTGTGGC,-0.163
17,ATTATAAT,0.226
18,CACTTAAC,-0.222
19,ACCTCCGT,0.302
20,GTACGTTA,0.0679
21,GGGTCTTA,0.206
22,CACGGCAC,0.176
23,ACAATCAG,-0.142
24,ACGCCAGT,-0.112
25,ACCAACTC,-0.184

row,Sequence,PBM E-score
1,CCAGAAAC,-0.0591
2,AGTCTAAA,-0.149
3,CTTATACC,0.195
4,CTTCCGAC,0.173
5,GGGGCCCC,0.13
6,GTTTCGTA,0.00765
7,CAGCGCGA,-0.0672
8,GGTCTCTA,0.0052
9,AGCATAGC,-0.298
10,CGCTACCG,0.16
11,AGCGATCA,-0.0493
12,GGAGTAAC,0.193
13,GCATCCCA,-0.0879
14,GGTTGGTA,-0.117
15,AAAGCAGG,-0.00496
16,TGCCGGCA,0.323
17,CATGGGGG,-0.25
18,GCCCCGAA,0.198
19,CAGCTCTA,-0.232
20,CTATGATA,-0.156
21,GTGCAGGA,-0.0864
22,AAGTTCCG,0.373
23,AAACGGGA,0.313
24,AAGCTCCT,-0.165
25,AAAAATCG,-0.206

row,Sequence,PBM E-score
1,ACTTCTTA,0.0335
2,TACTGAGA,-0.123
3,AGCCTGCA,-0.249
4,CTATATAG,-0.193
5,ATTGCCGA,0.318
6,CTTCCCCA,-0.184
7,AGAATGGA,-0.168
8,CCAATTTA,0.119
9,CCAGTAAC,-0.0964
10,AACGCCTC,-0.064
11,GGTGTACA,0.0639
12,CTAAAGTA,-0.066
13,ACCCGTAG,-0.128
14,ACAACCTC,-0.136
15,CGCTTATC,-0.0495
16,CAGGGGCG,0.0444
17,ATCGCAAG,-0.244
18,AACGACCT,-0.125
19,CATTGCGG,0.113
20,CTGTGTGA,-0.205
21,GCGTGTGA,0.00138
22,TTCATGAA,-0.0712
23,ACTTGTAC,0.0764
24,CCTCTTCC,-0.246
25,ATGGTAGC,-0.0736

row,Sequence,PBM E-score
1,GACGAACC,-0.0453
2,TACCCTCA,-0.168
3,GCCCAGTA,-0.257
4,AGGGGCTC,-0.354
5,CCAGCGCA,-0.0805
6,GTTACAAA,-0.0479
7,AAGGTACC,-0.0569
8,CGCGGTTC,0.205
9,TAAGCGTA,-0.235
10,GAGGCACA,-0.105
11,AGGAGGCG,-0.0399
12,CAGGTAGA,-0.0499
13,CTTCCATA,-0.163
14,CAGGAAGG,-0.237
15,AGATGATG,-0.173
16,ACCCCAGT,-0.0317
17,GTCGTTTA,-0.0556
18,GGGGGGCA,-0.252
19,GGCCGTTA,0.213
20,GGCTAGCC,-0.149
21,ACGGGCTG,0.102
22,AGTTAACG,0.0386
